From the supplement of paper PMC12632987 come the findings set out here.

In all, about 2,300 sequences were measured (“median log2 fold change of GCK-ALFA target abundance (FLAG IP / Myc IP barcode read proportion)”: median about 0.095, lowest 2% from about -0.47 on). Some of the results follow.

To fix the notation:
B1: LC3A_28_933 (protein)
chain: MSVEEIIAAIEATAAEAIAAGEDALIEVEIGSDTTVEEAERIMDKLEEEAARLSKAGLKVDVVIDLDNVSQEVLDTIMKKAEEIEKKYPNVNVIIALDEE
B2: LC3A_45_1966 (protein)
chain: MYLATVDLLVPNEEYEKAKEVLEKAAKEIEEEDPDTVKVTVEEDEATKEEDEKEGYRYIIVKVEAKTKQEALDIADKIVDRLEEAGIKGMAAIISVEEIE
B3: LC3A_3_1717 (protein)
chain: SEEIKKEIIEELKKKGASEETIEAAKELLDALEKKGYEEAMKTLLEEIKKAEGISSEILLNTLEELLHIVKNENLSEEELIKKIKEEFKIAKNENEIIEL
B4: LC3A_28_904 (protein)
chain: SKAIESAEKALEEVKKAVEAGDQSPLVLEVDAPSDEEDVEKFLELLEEIAREASKLKGVSIIIDIDEEVSEENKDKIIDKAEELEEKYPNVTIIIALPES
B5: LC3A_45_1964 (protein)
chain: MYRATIDLLVPRADVERVRAAVRETAEALRAEYGDRVEFDLERLDASAAATADEEEVYLELDIYADTKELALDAADRILAAIEAAVGRPVAAIISVEEVP
B6: LC3A_28_1235 (protein)
chain: NAVEKQIEAAKAEVEAAVAAGEEALVELTVTKETTEEDVEKIIKAMEEIAALAATLPALTIIIDVERGVKQEHIDKLADAADAIEAKYPNVTVIIALEEE
B7: LC3A_3_1634 (protein)
chain: LDERVAATLERLRAAGASEETLEAFRRTAELLKARGYDRALETLIEETERLLDLPDELLLDFYRDVLAYLETEDADEETVIKEIRRLARTARAEGEIIEL
B8: LC3A_3_1741 (protein)
chain: MEERLEEARERLEELGLSEEVVEAALRVVEALLERGFEEAVETLLELLEELKDLPDDILLAMLEDILRVVETEDLSEEEVIALIREEASVARSEAEIIEL
B9: LC3A_3_1826 (protein)
chain: MEEEIAATIARLKAAGHSQETIDAFKEAADALLEKGYYNTLKTLIELMDENVDMPSELLLELFEEVLKLVKETDLSEEELSKKVKELADLYKNEYEIEEL
B10: LC3A_free_8_2551 (protein)
chain: NSQEFAEKVSEIIDEAEEKVKKILTENGVDREKRLLLELLFGEIIIEVISLRDKSKEEIAKAAKEGLEEVKEEAESLDEETKAKVNAVIDEAEAKIEALL
B11: LC3A_28_755 (protein)
chain: ADIEGTIKEAIERAKKAKEEGKEEVIEITVPAGATQADIDKVIEGMEEIAEINKDMKRTTILVNVEAGVAQENLDKLIDAGEEIEEKYPNVTVIFALDEE
B12: LC3A_free_46_2303 (protein)
chain: YRAEIDIDLGGLDEAGMKALVDELVARFKAIAAEHGAKIDIEVEITTDEEGETFARIRITITAPDKETLQAAVTAIIDEVDELTKETGAAALISVEFHEE
B13: LC3A_free_8_2460 (protein)
chain: SSQAIVDAAVAGLDALEDEVVAKLKALGKSRLDILDMELVIGSTIADVISKVDDSPEAILEATKEGLERILEEAKKIGEEVAKLAEKKAEEILAKIKELM
B14: LC3A_28_1331 (protein)
chain: SHIEEELERAEKEAREALERGEDVLLEVKITGSTTLEEAEYMMEKLEEIVEEVAPHRKVSIVIDVDSSVSQEVIDLIAEKAEEIEEKYPNATVIIALDED
B15: LC3A_28_686 (protein)
chain: DALTEKLLKQVKEAEEKLLAEDGATVTITIEEPLSEEATEALIKALKEMAEKVKDKKNVTIIISLSRKVSQETIDALADAAEEIEKKYPNITVIIALEER
B16: LC3A_28_768 (protein)
chain: MTIEEEVAAAIAEAKAAVAAGEEAVITINVPDGTTEEDVEKVIKGLEEIAEITKDMPRTAIIVNIDGGVKQENIDKLLDKGEEIEKKYPNVTVIFALDEE
B17: LC3A_141_377 (protein)
chain: RTVTFELVAEGETPEEVVRRMEELEARVLAAYDALGGGEVRVRITVTLTDRETGEVTVEEEEFTADREGIAMALDGALITAASAVMRSPTDIRVTVTLEA
B18: LC3A_74_2078 (protein)
chain: ALTPEESETILEALAQAELLRLLAQEHPERREELLEKAERLREAAEEVIKKSGLDLELYESGGEVLAELWLDKENITVEEALKRAEELLKKVEEILKKLE
B19: LC3A_147_454 (protein)
chain: KVYVITVDALFKNDKELAKEVEEKIKKIAEENGAEVEVEFEEEQVSPTTTEYYLRVTLKTTDEEKAQKAEDEVSELLDETLEKHPEKFLGAIISFEVEEE
B20: LC3A_147_426 (protein)
chain: MVVEVDILVKGEEAVEEVKERFKAIAEELKAKGYKVELKIEVEKLDENTYYIHVTLKVEAETEEDAEEAKNYVLDKIDEIIEELKDRILGSLISVELDEE
B21: LC3A_28_1141 (protein)
chain: SSLVEEAKEKIKADAEADKDEPEVLLRVTVTSSMTVEEAKEIMDYVEEVVEEKKDKETIYIVVDATEPISQEVLDTIVEKLEEIEKKYPNVKSIIALPED
B22: LC3A_3_1709 (protein)
chain: GEELLEEARKILEEQGRSEETIKAVLEALKALLEKGYEEAAKEFIELLKEAKDLSDEIVLDFAEDVKYYVETEDLSEEEVIELIKEEYEIAKNEQEIEEL
B23: LC3A_28_1018 (protein)
chain: SELEEQIEEIEKEVEEAIEKGEDVVVTLEIKGSMSEEEVREAMERVKEIVLEGAEKGKVDLVIDVDKDVSQEKLDIVLEAADEIEEKAPNVNVIIALEER
B24: LC3A_3_1753 (protein)
chain: MEERLEEARKRLEALGFSEEVIEAALEVIELLLERGFEEAVEVLLEELEKLKDLPDEIILEMLEDIKRAVEEEDLNEEEVIEIIREEARVARSESEIIEL
B25: LC3A_free_46_2366 (protein)
chain: VKAEIDIDFLVETKEKAEELAKELEEEIKKIAEKYGVKVKIEVKIIKNPDGTYSLEIEIELEAENKETLQKAVNEIIDSIDKIAEKFNVSYIISVEIIDE
B26: LC3A_3_1370 (protein)
chain: MEEEKAATLAELKAAGKSEETIAAVEKTLDALIEKGYEEAAKTFMELLKELKDLSDEILLAFAEDVLKAVEEEDLSEEELIKFIKEEATIARNEQEIIEL
B27: LC3A_28_1269 (protein)
chain: SAIEAALAAARAAAEAARAAGEPAVIRITVPAGATAADIDRVEAGLREIAAILAGVPDQAIVIDVEAGVAQEHIDRLADTAEAIEAAHPNVTVIIALDED
B28: LC3A_3_1452 (protein)
chain: GEELIKRAEEILRKQGRSEETIEAARRLLKALQEKGYEKAMETLVKELEKMKDVSSEIVLAMLEDILYEVENKDLSEEEVVKIIKSEAAAAISEQEIIEL
B29: LC3A_free_8_2513 (protein)
chain: KSKEFANIAVKILDELEKKVVELLKEKGKSRLEILEAELLIGSIKAEIISLSDKSPEEQLKVVKEGLKELVEALEDVKEEVKKLAEEALKKIEAAKKELE

The target in the assay is MAP1LC3A, Q9H492. Nature of the assay: median log2 fold change of GCK-ALFA target abundance (FLAG IP / Myc IP barcode read proportion) (log2 ratio); each designed protein is fused to an ALFA-tag nanobody in HEK293 cells to bring the named protein to FLAG-tagged glucokinase (GCK); Myc marks an untargeted standard; higher = target protein stabilised (more abundant). The conditions noted are these: target protein: 3xFLAG-MCP-GCK-ALFA reporter; HEK293 landing pad (RPLP). In a few lines:
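The readout is target abundance, the per-binder median log2 ratio of FLAG to Myc barcode read proportions. It came from HEK293 landing-pad cells carrying a recombined ALFA-nanobody-fused binder library, induced with 2 μg mL^−1 doxycycline and transfected with a plasmid for a FLAG-tagged target and a Myc-tagged standard. After 48 h, lysates were immunoprecipitated with anti-FLAG and anti-Myc, and circular RNA barcodes were reverse transcribed, amplified and sequenced. Each barcode needed a proportion of at least 10^−7 in both replicates and each binder at least 3 barcodes per replicate, a pseudocount of 10^−6 was added, and the replicates were pooled.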
As to B1, the “median log2 fold change” value was -0.291.
Take B2: the “median log2 fold change” value was -0.0963.
Next, B3: 0.399; B4: -0.229; B5: -0.106.
To B6 belongs 0.0727; to B7, 0.272; to B8, 0.0728.
Next, B9: 0.186; B10: -0.172.
As to B11, the “median log2 fold change” value was -0.196.
As to B12, the “median log2 fold change” value stood at 0.0451.
As for B13, the “median log2 fold change” value is 0.228.
In the case of B14, the “median log2 fold change” value came to 0.0179.
Turning to B15, the “median log2 fold change” value was 0.115.
In the case of B16, the “median log2 fold change” value is 0.0185.
In the case of B17, the “median log2 fold change” value is -0.0212.
To B18 belongs -0.228; to B19, 0.0398.
Regarding B20, the “median log2 fold change” value was -0.175.
On to B21, for which the “median log2 fold change” value amounted to 0.109.
Next, B22: 0.0543.
As for B23, the “median log2 fold change” value was -0.171.
On to B24, for which the “median log2 fold change” value turned out to be 0.077.
As for B25, the “median log2 fold change” value was determined as 0.102.
Next, B26: 0.233.
To B27 belongs 0.159; to B28, 0.264; to B29, 0.118.
